Experimental data reported in article PMC7819943, “Rice protein-binding microarrays: a tool to detect cis-acting elements near promoter regions in rice”.
The list shows a part of the results.

molecular target: T1, OsWOX13 (Oryza sativa, UniProt Q5QMM3 1-267); experiment: protein-binding microarray (RPBM); PBS, 2% BSA, 51.3 ng/ul salmon testes DNA, 50 uM zinc acetate, 200 nM TF, 25 C, 1 h; high values mean tight binding; details: protein: recombinant; tags: N-terminal polyhistidine and DsRed monomer fusion (pET32a); label: CyDye5-dUTP incorporated in the synthesized complementary strand; 3' TTTTT single-stranded linker to array surface; dsDNA, one strand shown
T1 sequence: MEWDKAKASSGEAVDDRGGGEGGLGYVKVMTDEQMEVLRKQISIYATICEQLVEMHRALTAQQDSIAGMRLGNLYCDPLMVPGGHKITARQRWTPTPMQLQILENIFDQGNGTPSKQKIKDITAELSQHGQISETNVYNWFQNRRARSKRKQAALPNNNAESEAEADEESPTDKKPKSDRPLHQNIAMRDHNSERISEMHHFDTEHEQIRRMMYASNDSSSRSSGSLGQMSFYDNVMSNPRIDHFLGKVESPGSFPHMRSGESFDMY
Procedure, shortened: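 For the binding signal, per-feature fluorescence intensity was read in arbitrary units on an Axon 4000B scanner. Before scanning, a 2% BSA-blocked custom Agilent array made double-stranded with Cy5-dUTP was washed after 1 h at 25 °C with 200 nM protein and 50 µM zinc acetate. The proteins were Ni–NTA-purified transcription factors with N-terminal polyhistidine and DsRed fusions, expressed in E. coli BL21-CodonPlus.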

Sequence	binding signal
AATGATCAATGCATGATTAATAACTTCTATTGTGTAAACGCGGAGTCACCTAGTGCAG	14500 fluorescence intensity (a.u.)
CTATAATTACTATTATTAGTAATCATTGCATGTACAAAGCCGGAGTCACCTAGTGCAG	28200 fluorescence intensity (a.u.)
TTTAATGAAAATAATTTTCTCATAAATATCCAATCCAAGACGGAGTCACCTAGTGCAG	14700 fluorescence intensity (a.u.)
AATCACAGATTGCCGAAATTGGATTTTCCCCAATTTGATGCGGAGTCACCTAGTGCAG	21300 fluorescence intensity (a.u.)
TCCATATTAATTGACGTTTTAGATAAGGTTGAGGTCAATTCGGAGTCACCTAGTGCAG	37900 fluorescence intensity (a.u.)
CAGAATCAATCAGCCACAAGTCAAGTCGTTTCCAAATGGCCGGAGTCACCTAGTGCAG	21800 fluorescence intensity (a.u.)
ATTGGTGATGACTACAATGATGATATGATGGATGAAGAAGCGGAGTCACCTAGTGCAG	4600 fluorescence intensity (a.u.)
GCTCGGATTGGACATTTTCTAATACCACGAATCTAAACAGCGGAGTCACCTAGTGCAG	5660 fluorescence intensity (a.u.)
TGGATTAATTAGGCTCAATAGATTCATCTCGCGAATTAGTCGGAGTCACCTAGTGCAG	14300 fluorescence intensity (a.u.)
GCACAATTAATAGATTTGGAGGATATGTCAAACCTTGGGGCGGAGTCACCTAGTGCAG	25700 fluorescence intensity (a.u.)
TAAAACACCAGCTAATTAATCAATGTACTGTAAGTTTGTACGGAGTCACCTAGTGCAG	6090 fluorescence intensity (a.u.)
TGTAATAACGTATATAATTAATCGATCGCGTATAGAAGACCGGAGTCACCTAGTGCAG	9120 fluorescence intensity (a.u.)
CGGTAATAATAATAAACAGAGGCTAGCTTGCCTCTTGTCTCGGAGTCACCTAGTGCAG	3980 fluorescence intensity (a.u.)
GTATCAATCAGAATTTAGGAGACATGTTTAGGGTGAAACACGGAGTCACCTAGTGCAG	19200 fluorescence intensity (a.u.)
GTATGATTGGTTATGTAAAGTTTGTTTCTTGTTCTAGAGGCGGAGTCACCTAGTGCAG	58400 fluorescence intensity (a.u.)
CTTGATATAACTGAGGTAGGCGGTCTCCAGAAACCCCAGCCGGAGTCACCTAGTGCAG	11700 fluorescence intensity (a.u.)
CTAATTAAACAAACACGCGAAATACACGTATATCAAGAAACGGAGTCACCTAGTGCAG	5100 fluorescence intensity (a.u.)
CAAAATTTGTTAAGCAATTAGTAGGGCTAAATGTTAGGTTCGGAGTCACCTAGTGCAG	28500 fluorescence intensity (a.u.)
CGCACCAATCTCACCACATCAATCCACATGGCGTCGCGTCCGGAGTCACCTAGTGCAG	5000 fluorescence intensity (a.u.)
AAATCCTGATATCTAATCAAAATTTGTTCACAAGCAGCGGCGGAGTCACCTAGTGCAG	7900 fluorescence intensity (a.u.)
AGTTGATTTATCATGGAAAGATAAATTTCAGCATCTCACACGGAGTCACCTAGTGCAG	20000 fluorescence intensity (a.u.)

Sequence	binding signal
TCTCATCCGTCCGTCCATCATCTCATCTAATCTATCCGTCCGGAGTCACCTAGTGCAG	3200 fluorescence intensity (a.u.)
GTAAAATTTGTGAATAATATTACTATCAGTTTGCTGGATTCGGAGTCACCTAGTGCAG	4250 fluorescence intensity (a.u.)
GCTGTGTGATCGTCATCAATTGATCAGCAGAGTACCGTGGCGGAGTCACCTAGTGCAG	6260 fluorescence intensity (a.u.)
GTAATTGTTCTTTGATCTAATAAATTACCTGAGTTTTAAACGGAGTCACCTAGTGCAG	8650 fluorescence intensity (a.u.)
CATCTCAGTTAATAATTAATGTGCTTTAGGTTACGTATCACGGAGTCACCTAGTGCAG	11900 fluorescence intensity (a.u.)
GAAGTACTAAATTAGTATTGAACAGATGTATTGCACCATACGGAGTCACCTAGTGCAG	6680 fluorescence intensity (a.u.)
AGCAAATGATGATATGTCAAAGAACAAACTCCAAAGTGCGCGGAGTCACCTAGTGCAG	6390 fluorescence intensity (a.u.)
CGTTGACGAATTCAGCCCACATCTGAATTTGGCCTACCCACGGAGTCACCTAGTGCAG	6680 fluorescence intensity (a.u.)
TATTACAGTACGTTAACAAAGATTAAACTGAATCTACAATCGGAGTCACCTAGTGCAG	3210 fluorescence intensity (a.u.)
GTTCAAAAGATAATTGTGCTGTTTATTGTCCTTTCAGGTTCGGAGTCACCTAGTGCAG	4650 fluorescence intensity (a.u.)
TTGTAGATTTGTAGATGTTACTCTTACATGACTCCTTCCTCGGAGTCACCTAGTGCAG	4330 fluorescence intensity (a.u.)
TGTTAAATGATTTGTTTTCATGCGAAAACATTTTATATGGCGGAGTCACCTAGTGCAG	45400 fluorescence intensity (a.u.)
TCTTACTTAATAGCACTAATCTCAAAGTCAATCTAATGGACGGAGTCACCTAGTGCAG	3950 fluorescence intensity (a.u.)
TTTAATTGGAGCCTTCGAGGGTAGTCGAGTCAGTCACTTGCGGAGTCACCTAGTGCAG	27000 fluorescence intensity (a.u.)
GTTTTATTCTGATTAAATTAAATGCCACAGGGACATTGTCCGGAGTCACCTAGTGCAG	9600 fluorescence intensity (a.u.)
TCTGATGTTGCCTTAACTGCATAGCCTGCTTATATGATGGCGGAGTCACCTAGTGCAG	4900 fluorescence intensity (a.u.)
CCCTTAAAATCACAAATTAAATTTTGGATAACCCAAAAGCCGGAGTCACCTAGTGCAG	9230 fluorescence intensity (a.u.)
ATAATTTATGTGTGACTATCTATCTATCTTTATCTATCTACGGAGTCACCTAGTGCAG	7530 fluorescence intensity (a.u.)
GCTTAATTGAAGGAGCCATGGCAGCTGTCCTCTCCCGCCGCGGAGTCACCTAGTGCAG	53200 fluorescence intensity (a.u.)
TCACTATAATTTTGGTCAAATTCAACTATATGCTGGGACACGGAGTCACCTAGTGCAG	7080 fluorescence intensity (a.u.)
TGCCATTAACAATCACATAATTCCAAGAAATGCTATCAACCGGAGTCACCTAGTGCAG	8190 fluorescence intensity (a.u.)
